Test results published in PubChem BioAssay AID504332 (National Center for Advancing Translational Sciences (NCATS), 2011).
Hit rate of the full screen: of about 350,000 compounds, about 31,000 (8.9%) were called active. Inconclusive results, whose numbers are uncertain, are shown with a selection of clear calls. Calls follow the shape of the dose curve; as a rule, active = well fitted inhibition curve with a large enough effect; inconclusive = small, poorly fitted or top-dose-only effect; inactive = no such curve, though single readings can be large or run the other way. Potencies beside an inconclusive call are fits to weak or partial responses and may not hold up.

Target: Histone-lysine N-methyltransferase EHMT2 (Homo sapiens) (UniProt Q96KQ7)
Assay: qHTS Assay for Inhibitors of Histone Lysine Methyltransferase G9a; also: nearly all actives have a fitted effect of over 75% in size
Conditions: G9a H3K9 monomethylation, AlphaScreen, 2 h; activity, negative = inhibition: at 59 µM (top of the series) unless noted
How it was run: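 Step 1: enzyme (final 20 nM) with compound, 15 min RT. Step 2: substrate peptide 500 nM and SAM 20 uM, 2 h RT. Step 3: anti-H3K9me1 antibody and AlphaScreen beads, 10 min, then plate read.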
% is scaled to controls: 0 for no effect and ±100 for the full control effect; potency is read from the fitted curve at half-maximal effect; tags tell the direction and shape of the fitted curve.

UniProt Q96KQ7, sequence (Q96KQ7 whole entry, looked up): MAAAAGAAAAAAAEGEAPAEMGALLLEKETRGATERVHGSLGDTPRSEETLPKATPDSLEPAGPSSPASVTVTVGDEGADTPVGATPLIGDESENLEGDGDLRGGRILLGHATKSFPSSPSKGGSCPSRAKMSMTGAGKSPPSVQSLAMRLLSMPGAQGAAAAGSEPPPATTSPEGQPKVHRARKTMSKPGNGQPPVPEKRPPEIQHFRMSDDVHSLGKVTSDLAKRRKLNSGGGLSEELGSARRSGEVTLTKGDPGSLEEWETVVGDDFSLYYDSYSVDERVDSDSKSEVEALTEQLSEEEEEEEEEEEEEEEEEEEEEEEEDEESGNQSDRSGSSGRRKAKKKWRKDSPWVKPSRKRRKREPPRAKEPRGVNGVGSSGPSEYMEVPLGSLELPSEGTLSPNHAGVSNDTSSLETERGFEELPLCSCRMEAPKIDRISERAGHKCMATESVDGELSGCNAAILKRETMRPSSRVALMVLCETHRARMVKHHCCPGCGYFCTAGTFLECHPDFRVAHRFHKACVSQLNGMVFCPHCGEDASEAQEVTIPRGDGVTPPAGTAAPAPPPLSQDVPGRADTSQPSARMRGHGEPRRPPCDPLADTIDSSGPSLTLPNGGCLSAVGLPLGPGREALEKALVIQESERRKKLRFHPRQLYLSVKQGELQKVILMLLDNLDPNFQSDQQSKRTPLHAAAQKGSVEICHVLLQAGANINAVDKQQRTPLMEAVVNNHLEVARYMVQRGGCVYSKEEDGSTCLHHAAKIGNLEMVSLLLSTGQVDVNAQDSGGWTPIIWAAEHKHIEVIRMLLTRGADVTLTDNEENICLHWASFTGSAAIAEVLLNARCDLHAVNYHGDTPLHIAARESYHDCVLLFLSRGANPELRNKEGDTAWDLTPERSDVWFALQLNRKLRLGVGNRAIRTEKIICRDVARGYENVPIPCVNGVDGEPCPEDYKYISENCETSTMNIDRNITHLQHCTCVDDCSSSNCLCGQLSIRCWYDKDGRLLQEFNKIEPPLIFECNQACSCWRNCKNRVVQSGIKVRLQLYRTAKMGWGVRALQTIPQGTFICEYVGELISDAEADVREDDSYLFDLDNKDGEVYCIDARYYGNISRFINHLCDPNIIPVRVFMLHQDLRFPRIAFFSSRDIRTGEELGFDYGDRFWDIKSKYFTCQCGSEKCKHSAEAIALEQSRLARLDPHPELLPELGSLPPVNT

Structure (SMILES) | Potency | activity, negative = inhibition
COc1ccc(CC(=O)Nc2nc(-c3cccc([N+](=O)[O-])c3)cs2)cc1 | inconclusive: 8.91 µM [inhibitor, single point] | –
CCC(C(=O)NCc1ccccc1OC)n1nc(C)n2c(cc3occc32)c1=O (centres undefined) | inconclusive: 79.4 µM [inhibitor, single point] | –
Cc1oc(-c2ccccc2Cl)nc1CS(=O)(=O)CC(=O)NCc1ccc(F)cc1 | inactive | –
Cc1ccc2c(=O)cc(C(=O)Nc3sc4c(c3C(=O)NCC3CCCO3)CCC4)oc2c1 (centres undefined) | inactive | –
O=C(O)c1ccc(Nc2nc(-c3cccnc3)nc3ccccc23)cc1 | active: 56.2 µM | –
CCOc1ccc(-n2nc3ccc(NC(=O)c4ccc(OC)c(Cl)c4)cc3n2)cc1 | inactive | –
CCOC(=O)c1c(C2COc3ccccc3O2)csc1NC(=O)c1ccco1 (centres undefined) | active: 1.58 µM | –
CCn1nc(C(=O)OCC(=O)NCC(C)C)c2ccccc2c1=O | inactive | –
Cn1c(=O)c(=O)n(C)c2cc(S(=O)(=O)N3CCCCC3)ccc21 | inconclusive: 8.91 µM [inhibitor, partial curve] | –
COC(=O)c1sc2nc(CN3CCN(c4cccc(C(F)(F)F)c4)CC3)[nH]c(=O)c2c1C | inconclusive: 39.8 µM [inhibitor, partial curve, poor fit] | –
Cc1cc(SCC(=O)c2ccccc2)nc(C)n1 | active: 50.1 µM | –
COc1ccc(-n2nc(C(=O)Nc3cc(C)ccn3)c3c4ccccc4n(C)c3c2=O)cc1 | inconclusive: 25.1 µM [inhibitor, single point] | –
Cc1c(C(=O)N(CCO)Cc2ccccc2)oc2c(F)cccc12 | inactive | –
Cc1ccc(C2Nc3ccc4ccccc4c3C3=C2C(=O)CC(C)(C)C3)o1 (centres undefined) | inconclusive: 17.8 µM [inhibitor, single point] | –
CC(C)NC(=O)N1[C@H](c2cccs2)[C@@H](C)C(=O)[C@@H](C)[C@@H]1c1cccs1 | inactive | –
Cc1ccc(-c2nc(SC(C)C(=O)N3CCCC3)n[nH]2)cc1 (centres undefined) | inconclusive: 39.8 µM [inhibitor, partial curve, poor fit] | –
O=C(Oc1ccccc1C(=O)N1CCOCC1)c1ccccc1 | inconclusive: 39.8 µM [inhibitor, partial curve, poor fit] | –
CC(C)Cn1c(N)c(C(=O)COC(=O)c2cc(C(F)(F)F)nc3ccccc23)c(=O)n(C)c1=O | inconclusive: 89.1 µM [inhibitor, single point] | –
CCOC(=O)C1=C(C)N(c2ccccc2)C(=O)/C1=C\c1cccs1 | inconclusive: 28.2 µM [inhibitor, single point] | –
Cc1cc(=O)[nH]c(SCc2ccc(Cl)cc2Cl)n1 | inconclusive: 89.1 µM [inhibitor, partial curve, poor fit] | –
Cc1ccc2nc(N(CCN(C)C)C(=O)c3ccc4c(c3)OCCO4)sc2c1 | active: 44.7 µM | –
CC(OC(=O)CNC(=O)c1ccc2ccccc2c1)C(=O)N(C)C1CCCCC1 (centres undefined) | inconclusive: 89.1 µM [inhibitor, partial curve, poor fit] | –
COCC(C)NC(=O)CCS(=O)(=O)c1nc(-c2ccc(OC)cc2)cc(C(F)(F)F)n1 (centres undefined) | inconclusive: 28.2 µM [inhibitor, partial curve, poor fit] | –

Structure (SMILES) | Potency | activity, negative = inhibition
CCCCNC(=O)c1ccc2c(=O)n(Cc3ccc(OC)cc3)c(=O)[nH]c2c1 | inactive | –
COc1cc(C(=O)Nc2nc(-c3ccc(Cl)cc3)c(C)s2)ccc1OCC(=O)Nc1ccc(F)cc1 | inconclusive: 79.4 µM [inhibitor, single point] | –
COCc1cc(C)nc2c1C(=O)NC(c1ccc(F)cc1)N2Cc1ccccc1 (centres undefined) | active: 14.1 µM | –
CCOc1cccc2sc(NN)nc12 | active: 12.6 µM | –
COc1ccccc1N1CCN(C(=O)CCCN2C(=O)c3cccc4cccc(c34)C2=O)CC1 | inconclusive: 56.2 µM [inhibitor, partial curve, poor fit] | –
CN(C)c1ccc(/C=[N+](\[O-])C2SC(=S)N(C)C2(C)C)cc1 (centres undefined) | inactive | –
Cc1ccc(CNCc2ccccc2Cl)s1 | inactive | –
Oc1c(Br)cc(/C=N/n2c(-c3ccccc3)n[nH]c2=S)c(O)c1Br | active: 0.398 µM | –
CCOc1ccc(NC(=O)CN(C)C(=O)CCCc2c[nH]c3ccccc23)cc1OCC | inconclusive: 79.4 µM [inhibitor, single point] | –
CCCCC[C@H](O)/C=C/[C@H]1C=CC(=O)[C@@H]1CCCCCCC(=O)O | inactive | –
O=C(Oc1ccccc1C(=O)N1CCOCC1)c1ccc(Br)cc1 | inactive | –
N#Cc1ccc(OCC(O)CS(=O)(=O)c2ccccc2)cc1 (centres undefined) | inconclusive: 0.501 µM [inhibitor, partial curve, poor fit] | –
N#C/C(=C\c1ccc(OCc2ccc(Cl)cc2)cc1)C(=O)Nc1cccc(C(=O)O)c1 | inconclusive: 89.1 µM [inhibitor, single point] | –
CN(C)CCNC(=O)Cn1ccc2cc(S(=O)(=O)N3CCCCC3)ccc21 | inconclusive: 20 µM [inhibitor, partial curve, poor fit] | –
CC(C)C[C@@H](NC(=O)C1CCC(CNC(=O)[C@H](Cc2ccccc2)NC(=O)OC(C)(C)C)CC1)C(=O)O (some centres undefined) | inconclusive: 89.1 µM [inhibitor, single point] | –
COc1ccc(/C=N/N(c2ccccc2)c2ccccc2)cc1O | inconclusive: 79.4 µM [inhibitor, single point] | –
CCOc1ccc(CCNC(=O)c2oc(=O)c3ccccc3c2-c2ccc(C)cc2)cc1OCC | inconclusive: 31.6 µM [inhibitor, partial curve, poor fit] | –
O=C(CN1CCOCC1)N/N=C/c1c(O)ccc2ccccc12 | inactive | –
CCOC(=O)CSc1ccc(C(=O)Nc2ccc(Cl)cc2)cn1 | inactive | –
COc1ccc(C(=O)CSc2nnc(CCc3ccccc3)n2-c2ccccc2)cc1 | active: 39.8 µM | –
O=C(Nc1cccc(C(F)(F)F)c1)c1cnn(-c2cccc(F)c2)c1C1CCNCC1 | inactive | –
N#Cc1c(-c2ccccc2)nc(SCC(=O)Nc2ccccc2)[nH]c1=O | inconclusive: 89.1 µM [inhibitor, single point] | –
COc1ccc(NC(=O)CN2CCN(CC#N)CC2)cc1 | inconclusive: 0.282 µM [inhibitor, partial curve, poor fit] | –

Structure (SMILES) | Potency | activity, negative = inhibition
COc1cccc(-c2nc(CS(=O)(=O)CC(=O)N3CCN(c4cc(C)ccc4C)CC3)c(C)o2)c1 | inconclusive: 7.94 µM [inhibitor, partial curve, poor fit] | –
COc1ccc(N2CCN(C(=O)c3cccc(S(=O)(=O)N4CCOCC4)c3)CC2)cc1 | inconclusive: 39.8 µM [inhibitor, single point] | –
O=C1CCc2cc(S(=O)(=O)Nc3ccccc3)ccc2N1 | inconclusive: 25.1 µM [inhibitor, single point] | –
O=C(NCCCc1ccccc1)c1cncc(Br)c1 | inactive | –
Cc1cc(C)nc(Sc2ncnc3sc4c(c23)CCC4)n1 | inconclusive: 25.1 µM [inhibitor, single point] | –
O=C(Cc1cc(C(=O)O)c2ccccc2n1)Nc1ccccc1 | active: 35.5 µM | –
O=C(C1=C[C@@H](c2ccc(C(F)(F)F)cc2)C[C@@H](OCCCCO)O1)N1CCN(Cc2ccc3c(c2)OCO3)CC1 | – | inconclusive: -59.4% [inhibitor]
C/C(=N\NS(=O)(=O)c1ccc(Cl)c([N+](=O)[O-])c1)c1cc2ccccc2o1 | inconclusive: 17.8 µM [inhibitor, partial curve, poor fit] | –
O=C(NCc1ccccc1)C1=C[C@H](c2ccc3c(c2)OCO3)C[C@H](OCCCCO)O1 | – | inconclusive: -60.4% [inhibitor]
CCc1ccccc1NS(=O)(=O)c1ccc2[nH]cc(C(=O)N(CC)Cc3ccccc3)c(=O)c2c1 | inconclusive: 28.2 µM [inhibitor, single point] | –
CCCc1ccc(OCC(=O)Nc2sc(C(=O)OCC)c(C)c2C(=O)OCC)cc1 | inactive | –
Cc1ccc(C)c2c1sc(=NC(=O)CN1C(=O)CCC1=O)n2C | inconclusive: 89.1 µM [inhibitor, single point] | –
CCC(c1nnnn1CC1CCCO1)N(CCCO)Cc1cc2cccc(C)c2[nH]c1=O (centres undefined) | inconclusive: 100 µM [inhibitor, single point] | –
NNC(=O)c1ccc2c(c1)S(=O)(=O)NNC2=O | active: 11.2 µM | –
Cc1ccc2c(CNCc3ccc(C)o3)c(C(=O)O)n(Cc3ccccc3C)c2c1 | inconclusive: 7.94 µM [inhibitor, partial curve, poor fit] | –
COc1ccc(S(=O)(=O)Nc2c(C)nc3nc[nH]n3c2=O)cc1 | inconclusive: 35.5 µM [inhibitor, partial curve, poor fit] | –
O=C(O)CCCCCNC(=O)C(=O)C1C(=O)Nc2ccccc21 (centres undefined) | active: 25.1 µM | –
CCOc1ccc(S(=O)(=O)N2CCCCC2)cc1NC(=O)Cc1cccc(C(F)(F)F)c1 | inconclusive: 0.158 µM [inhibitor, full curve, poor fit] | –
Cc1nc2ccccn2c1C(=O)NNC(=O)Nc1ccccc1 | active: 50.1 µM | –
CCCCCCCn1c(=N)n(CC(O)c2ccco2)c2ccccc21 (centres undefined) | active: 79.4 µM | –
O=C1CCCC/C1=C\Nc1ccc(Cl)cn1 | inconclusive: 1.26 µM [inhibitor, partial curve, poor fit] | –
CCOc1ccc(NC(=O)Cn2c(=O)n(CCCCCC(=O)NCc3ccccc3)c(=O)c3sccc32)cc1 | inactive | –
Cn1c(C(=O)Nc2ccccc2)cc2sccc21 | active: 1.58 µM | –
